# In the supplement of paper PMC8728848:
# This is one part of the list.
# What was measured:
# Assay in all cases: glycan array binding signal (z-score within array); higher = stronger binding
# Details in all cases: glycan notation: IUPAC condensed, linker removed; mutation: N288D, K313I
# [1] = target: Man(a1-2)Man(a1-3)[Man(a1-2)Man(a1-6)]Man
# Method in brief: (§1)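 The Consortium for Functional Glycomics database supplied 3228 glycan arrays, of which those lacking an available protein sequence were dropped. The binding signal, a within-array Z-score, was averaged across arrays of the same protein sequence and across linkers. Negative scores can be read as non-binding.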
# [2] = target: Man(a1-2)Man(a1-3)[Man(a1-2)Man(a1-6)]Man(a1-6)[Man(a1-2)Man(a1-2)Man(a1-3)]Man
# Method in brief: as §1
# [3] = target: Man(a1-2)Man(a1-3)[Man(a1-2)Man(a1-6)]Man(a1-6)[Man(a1-2)Man(a1-2)Man(a1-3)]Man(b1-4)GlcNAc(b1-4)GlcNAc
# Method in brief: as §1
# [4] = target: Man(a1-2)Man(a1-3)[Man(a1-6)]Man(a1-6)[Man(a1-2)Man(a1-3)]Man(b1-4)GlcNAc(b1-4)GlcNAc
# Method in brief: as §1
# [5] = target: Man(a1-2)Man(a1-6)[Man(a1-3)]Man(a1-6)[Man(a1-2)Man(a1-2)Man(a1-3)]Man
# Method in brief: as §1
# [6] = target: Man(a1-2)Man(a1-6)[Man(a1-3)]Man(a1-6)[Man(a1-2)Man(a1-2)Man(a1-3)]Man(b1-4)GlcNAc(b1-4)GlcNAc
# Method in brief: as §1
# Man(a1-3)[Man(a1-6)]Man = target: Man(a1-3)[Man(a1-6)]Man
# Method in brief: as §1
# [7] = target: Man(a1-3)[Man(a1-6)]Man(a1-6)[Man(a1-2)Man(a1-3)]Man(b1-4)GlcNAc(b1-4)GlcNAc
# Method in brief: as §1
# [8] = target: Man(a1-3)[Man(a1-6)]Man(a1-6)[Man(a1-3)]Man
# Method in brief: as §1
# [9] = target: Man(a1-3)[Man(a1-6)]Man(a1-6)[Man(a1-3)]Man(b1-4)GlcNAc(b1-4)GlcNAc
# Method in brief: as §1
# [10] = target: Man(a1-3)[Man(a1-6)]Man(b1-4)GlcNAc(b1-4)GlcNAc
# Method in brief: as §1
# [11] = target: Man(a1-3)[Man(a1-6)]Man(b1-4)GlcNAc(b1-4)[Fuc(a1-6)]GlcNAc
# Method in brief: as §1
# Man(a1-6)Man = target: Man(a1-6)Man
# Method in brief: as §1
# Man(b1-4)GlcNAc = target: Man(b1-4)GlcNAc
# Method in brief: as §1
# MurNAc(b1-4)GlcNAc = target: MurNAc(b1-4)GlcNAc
# Method in brief: as §1
# Neu5Ac(a2-3)Gal = target: Neu5Ac(a2-3)Gal
# Method in brief: as §1
# [12] = target: Neu5Ac(a2-3)Gal(b1-3)GalNAc
# Method in brief: as §1
# [13] = target: Neu5Ac(a2-3)Gal(b1-3)GalNAc(b1-3)Gal(a1-4)Gal(b1-4)Glc
# Method in brief: as §1
# [14] = target: Neu5Ac(a2-3)Gal(b1-3)GalNAc(b1-4)[Neu5Ac(a2-3)]Gal(b1-4)Glc
# Method in brief: as §1
# [15] = target: Neu5Ac(a2-3)Gal(b1-3)GalNAc(b1-4)[Neu5Ac(a2-8)Neu5Ac(a2-3)]Gal(b1-4)Glc
# Method in brief: as §1
# [16] = target: Neu5Ac(a2-3)Gal(b1-3)GalNAc6S
# Method in brief: as §1
# [17] = target: Neu5Ac(a2-3)Gal(b1-3)GlcNAc
# Method in brief: as §1
# [18] = target: Neu5Ac(a2-3)Gal(b1-3)GlcNAc(b1-2)Man
# Method in brief: as §1
# [19] = target: Neu5Ac(a2-3)Gal(b1-3)GlcNAc(b1-2)Man(a1-3)[GlcNAc(b1-4)][Neu5Ac(a2-3)Gal(b1-3)GlcNAc(b1-2)Man(a1-6)]Man(b1-4)GlcNAc(b1-4)GlcNAc
# Method in brief: as §1
# [20] = target: Neu5Ac(a2-3)Gal(b1-3)GlcNAc(b1-2)Man(a1-3)[Neu5Ac(a2-3)Gal(b1-3)GlcNAc(b1-2)Man(a1-6)]Man(b1-4)GlcNAc(b1-4)GlcNAc
# Method in brief: as §1
# [21] = target: Neu5Ac(a2-3)Gal(b1-3)GlcNAc(b1-3)Gal(b1-3)GlcNAc
# Method in brief: as §1
# [22] = target: Neu5Ac(a2-3)Gal(b1-3)GlcNAc(b1-3)Gal(b1-4)GlcNAc
# Method in brief: as §1
# [23] = target: Neu5Ac(a2-3)Gal(b1-3)GlcNAc(b1-3)GalNAc
# Method in brief: as §1
# [24] = target: Neu5Ac(a2-3)Gal(b1-3)GlcNAc(b1-4)Gal(b1-4)Glc
# Method in brief: as §1
# [25] = target: Neu5Ac(a2-3)Gal(b1-3)GlcNAc(b1-6)GalNAc
# Method in brief: as §1
# [26] = target: Neu5Ac(a2-3)Gal(b1-3)GlcNAc6S
# Method in brief: as §1
# [27] = target: Neu5Ac(a2-3)Gal(b1-3)[Fuc(a1-4)]GlcNAc
# Method in brief: as §1
# [28] = target: Neu5Ac(a2-3)Gal(b1-3)[Fuc(a1-4)]GlcNAc(b1-3)Gal(b1-3)[Fuc(a1-4)]GlcNAc
# Method in brief: as §1
# [29] = target: Neu5Ac(a2-3)Gal(b1-3)[Fuc(a1-4)]GlcNAc(b1-3)Gal(b1-4)[Fuc(a1-3)]GlcNAc
# Method in brief: as §1
# [30] = target: Neu5Ac(a2-3)Gal(b1-3)[GlcNAc(b1-6)]GalNAc
# Method in brief: as §1
# [31] = target: Neu5Ac(a2-3)Gal(b1-3)[Neu5Ac(a2-6)]GalNAc
# Method in brief: as §1
# [32] = target: Neu5Ac(a2-3)Gal(b1-3)[Neu5Ac(a2-6)]GlcNAc(b1-3)[Fuc(a1-3)[Gal(b1-4)]GlcNAc(b1-6)]Gal(b1-4)Glc
# Method in brief: as §1
# [33] = target: Neu5Ac(a2-3)Gal(b1-3)]Neu5Ac(a2-3)Gal(b1-4)]GlcNAc
# Method in brief: as §1
binder,measurement,setting,value
"Langerin (Homo sapiens), Q9UJ71 (protein) STLNAQIPELKSDLEKASALNTKIRALQGSLENMSKLLKRQNDILQVVSQGWKYFKGNFYYFSLIPKTWYSAEQFCVSRNSHLTSVTSESEQEFLYKTAGGLIYWIGLTKAGMEGDWSWVDDTPFNKVQSARFWIPGEPNDAGNNEHCGNIKAPSLQAWNDAPCDITFLFICKRPYVPSEP",glycan array binding signal (z-score),[1],-0.254
same,glycan array binding signal (z-score),[2],0.217
same,glycan array binding signal (z-score),[3],-0.222
same,glycan array binding signal (z-score),[4],-0.028
same,glycan array binding signal (z-score),[5],-0.085
same,glycan array binding signal (z-score),[6],-0.222
same,glycan array binding signal (z-score),Man(a1-3)[Man(a1-6)]Man,-0.228
same,glycan array binding signal (z-score),[7],-0.13
same,glycan array binding signal (z-score),[8],-0.24
same,glycan array binding signal (z-score),[9],-0.197
same,glycan array binding signal (z-score),[10],-0.209
same,glycan array binding signal (z-score),[11],0.3
same,glycan array binding signal (z-score),Man(a1-6)Man,-0.105
same,glycan array binding signal (z-score),Man(b1-4)GlcNAc,-0.066
same,glycan array binding signal (z-score),MurNAc(b1-4)GlcNAc,-0.292
same,glycan array binding signal (z-score),Neu5Ac(a2-3)Gal,-0.27
same,glycan array binding signal (z-score),[12],-0.176
same,glycan array binding signal (z-score),[13],-0.143
same,glycan array binding signal (z-score),[14],-0.287
same,glycan array binding signal (z-score),[15],-0.117
same,glycan array binding signal (z-score),[16],-0.23
same,glycan array binding signal (z-score),[17],-0.204
same,glycan array binding signal (z-score),[18],-0.251
same,glycan array binding signal (z-score),[19],0.184
same,glycan array binding signal (z-score),[20],-0.145
same,glycan array binding signal (z-score),[21],-0.292
same,glycan array binding signal (z-score),[22],-0.212
same,glycan array binding signal (z-score),[23],-0.147
same,glycan array binding signal (z-score),[24],0.131
same,glycan array binding signal (z-score),[25],-0.092
same,glycan array binding signal (z-score),[26],-0.22
same,glycan array binding signal (z-score),[27],-0.217
same,glycan array binding signal (z-score),[28],-0.088
same,glycan array binding signal (z-score),[29],-0.187
same,glycan array binding signal (z-score),[30],-0.219
same,glycan array binding signal (z-score),[31],-0.106
same,glycan array binding signal (z-score),[32],-0.298
same,glycan array binding signal (z-score),[33],-0.269
